# Results: article PMC12136788
# Some of the results follow.
# T1: UNK ZnF1-3 (human, UniProt Q9C0B0 31-174)
# T1 sequence: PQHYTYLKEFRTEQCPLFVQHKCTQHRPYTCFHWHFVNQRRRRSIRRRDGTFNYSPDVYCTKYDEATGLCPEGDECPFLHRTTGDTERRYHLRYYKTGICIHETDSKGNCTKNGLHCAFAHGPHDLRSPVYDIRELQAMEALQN
# B1: chr1:220276048:220276049:+_ENSG00000067704_ENST00000302637|hu_hu|hu_hu_hu_mus_True|38_88 (ssRNA)
# RNA: GGGAGUUCUACAGUCCGACGAUCGCAAAUUGCCUGGUUGGCGGGAAUCGUCCAAGGCUGGGUGGUCCAAACUAAAACGCUAACAGGGGAUGAGGCAUCUAUAAGAGACUCCAACUUCGGAGGAGGUCUCAGGAGGGGGAAUCUCAACAGAGGAUUGAGCAUCA
# B2: chr1:169204414:169204415:-_ENSG00000143156_ENST00000367811|hu_hu|FALSE|FALSE (ssRNA)
# RNA: GGGAGUUCUACAGUCCGACGAUCCACCAUGUCAUGAUAUUCGGUCACUACUCCUUUAUAAACUUCAUAGAAUUCCUCAACAUUAACCCGAUCCAUAUUGAACAUCUGCAUAGCUGAGAUUUCAAAACCUGCAUCUCGGAUAGCCAACAGAGGAUUGAGCAUCA
# B3: chr7:116558156:116558157:+_ENSG00000198898_ENST00000458284|hu_hu|FALSE|FALSE (ssRNA)
# RNA: GGGAGUUCUACAGUCCGACGAUCAAAAACUUUUAACCAUAAACUAGAAGAAUCAUCUCUUCAUUGUAAGAAAGAAAGGCCUAACAGAAAGACAUUUAAACUAAACUGAUUUUCAAUCCUCUUAGAACAAACAAAAUGAAAAAUCAACAGAGGAUUGAGCAUCA
# B4: chr1:145439819:145439820:+_ENSG00000117289_ENST00000369317|hu_mus|FALSE|FALSE (ssRNA)
# RNA: GGGAGUUCUACAGUCCGACGAUCUUUCUUUGCCUCUUGAGUUGGCUGGCUGGGGCGAUCGAGAAAAGCCUUCACCCAGUAGUCUACGCAACCAUAUUUUCCUUUAAAGGAUGUUCCCAGGGGCCCUUGAGGAAGCUCGAAGCCCAACAGAGGAUUGAGCAUCA
# B5: 91406394_91406514_697_3pUTR_ENSG00000122482_ENST00000337393|human|control|control (ssRNA)
# RNA: GGGAGUUCUACAGUCCGACGAUCGUGUUGACUUGCUUUCUGUGGUGUAGACAGCUGAAGAUCAGCUGCUACCUUCAAAGUUGAACAAGAUUCUGUUGUUGGCUGAUCCACAGGCUGUCCAGUGGUUAAUGAAACACUGCCUUUCAACAGAGGAUUGAGCAUCA
# B6: chr1:55209531:55209532:+_ENSMUSG00000025979_ENSMUST00000162364|mus_mus|FALSE|FALSE (ssRNA)
# RNA: GGGAGUUCUACAGUCCGACGAUCGUUAUCCUUCGACAUCAGAUUAUAUUUCAUCACAAAUUUGGUAAACCGAUGACAUAAAAAUGUUUCAUUUUCAUAUUCAUCAAAUAUCUGCCGGUGAUGAAAAUAGGCAUGUGAAAAUAUCAACAGAGGAUUGAGCAUCA
# Biological target: T1, UNK ZnF1-3
# Assay: nsRBNS (natural sequence RNA bind-n-seq); RBNS binding buffer (assumed for nsRBNS): 25 mM Tris pH 7.5, 150 mM KCl, 3 mM MgCl2, 0.01% Triton X-100, 500 ug/ml BSA, 20 U/ml SUPERase-In, 4 C; UNK is unkempt and MSI1 is Musashi-1; names of the RNAs are library labels; protein concentration not given here; high values mean tight binding
row,Binder,binding signal
1,B1,1.67 enrichment R
2,B2,1.35 enrichment R
3,B3,1.63 enrichment R
4,B4,1.13 enrichment R
5,B5,0.529 enrichment R
6,B6,0.449 enrichment R
